# Measurements: the supplement of paper PMC10185492
# The other results are listed elsewhere or left out. Values come from read counts of a selection and are noisy.
# Tested on: SARS-CoV-2 3CLpro (nsp5)
# Assay: substrate phage enrichment score (protease-eluted vs HEPES control, +1 offset) (ratio); higher = better cleaved substrate
# Details: selection round: 4; protease elution time: 15 min
# Method: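 Random heptapeptide substrate phage display (M13 pIII fusion, heptapeptide between an N-terminal biotinylated AviTag GLNDIFEAQKIEWHE and pIII; phages immobilised on streptavidin) eluted by cleavage with 50 nM protease in 20 mM HEPES at 37 °C. Selected phages were NGS sequenced, and the enrichment score is (reads in protease sample + 1)/(reads in HEPES blank-selection control + 1).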
row,Substance,substrate phage enrichment score
1,AMAAHHH,1.55
2,QRETSRP,> 30
3,KPAPSSP,8.86
4,TKLGATP,0.933
5,ESIPTAS,2.51
6,LRGNPTN,0.533
7,NCNVGAQ,> 23
8,TKRTMFD,0.71
9,VRKFRCR,> 37
10,NPATMLQ,> 122
11,ARCRDVP,> 41
12,PGDWPAR,> 22
13,RNRDERE,1.27
14,AVEHATQ,3.17
15,TRSTRNM,27.5
16,STAAHHH,1.24
17,LYFPGGS,4.75
18,KREPQYA,1.98
19,VRMYESH,0.278
20,PPVAALQ,> 51
21,IYDTELQ,10
22,LPYFQGG,3.5
23,IPSAVCS,8.33
24,PVLPSPG,0.192
25,NPSCTKW,0.345

row,Substance,substrate phage enrichment score
1,SYDQCCS,1.17
2,YVAAHHH,1.43
3,QCSNVPT,10
4,SSSACSK,0.735
5,VFQGGSA,3.4
6,CSWTGDV,0.333
7,PSHRCAT,0.143
8,RPTAQPR,> 34
9,TKREVNY,13
10,SPRNHQG,2.75
11,CQASGQS,5.65
12,SSVLQAR,> 56
13,VFRYFWE,6.67
14,HSQRSIP,8.22
15,AAAQHQH,1.48
16,SPCCIRQ,2.22
17,CQVSKFQ,> 22
18,AFREPDT,2.11
19,KQSSGIR,> 30
20,MPMLQSG,> 61
21,PCSDQTD,> 34
22,DEARGGK,2.11
23,KNDSYKP,0.791
24,RVRLCCR,> 31
25,THCQTDL,0.304

row,Substance,substrate phage enrichment score
1,CTGEPIR,0.129
2,VPLKMSG,0.526
3,RECVVLM,> 47
4,SAMHKTQ,> 29
5,LSSPGMS,> 35
6,PDMRRNN,> 24
7,KRRPAMQ,> 33
8,PSYRDVR,1.27
9,NPSADMR,6.25
10,SVGGHPR,> 23
11,VKPAHNR,10.5
12,RAYPQTG,1.46
13,GTAILQG,> 27
14,VHFQGGS,2.12
15,TSCLHGV,> 50
16,GSAEFNG,4.56
17,QQTNRTN,> 168
18,SAAAHQQ,1.85
19,KGHMTPS,12.5
20,TGGCTWS,> 24
21,TRPRTKD,3.83
22,KAQNIGH,> 22
23,ATSDVWQ,2.8
24,QHQPAPG,> 30
25,YGPAMST,> 21

row,Substance,substrate phage enrichment score
1,GRYLPVT,0.08
2,SRNRCPL,> 24
3,PAQVGPP,0.236
4,SQTTHLQ,28
5,PPHYEGA,1.18
6,SDRGDLW,> 24
7,ASKTRPG,> 37
8,GLRAGFC,> 21
9,VTPKMTL,1.73
10,GSAAAHQ,1.61
11,EHKEDDR,16.5
12,REKNDSP,12
13,IESKQNL,> 37
14,PDDSYGI,0.316
15,SYSIREQ,> 32
16,PKLQAGR,> 27
17,SSHEPRE,4
18,WWQNPPP,3.17
19,EPSSCAR,0.321
20,GSARPRD,6.75
21,QVECTTP,> 24
22,ASGAGQK,> 23
23,TSSTLNQ,> 30
24,RCSDAYG,> 25
25,KNLCLEP,0.625

row,Substance,substrate phage enrichment score
1,IRSNRLG,3.17
2,RIQNATS,> 35
3,TGKSDSE,0.316
4,NSQLEAH,> 34
5,SVESIGR,1.9
6,RAKEPAT,1.2
7,TEAGMGR,> 23
8,RGNKYNR,14
9,SRSTSLQ,> 21
10,ICEPYMN,1.04
11,VGSTDMI,0.833
12,AMLQSKS,> 35
13,QHSTNVA,6.67
14,QTDASWS,0.0769
15,AQGACIH,> 25
16,PEHCQLD,11.5
17,LTGSSCP,3.17
18,RHPQCQP,> 27
19,SQTPQES,0.0714
20,RAGCKAA,15.7
21,AARTQNW,5.38
22,TCRTTLQ,190
23,YDRPKDW,> 29
24,CLIRDLR,1.52
25,VVPSVTS,10.5

row,Substance,substrate phage enrichment score
1,ERFGSNP,11.5
2,QTIKLQA,> 120
3,QRGQMSE,11.7
4,IFRCVCR,> 36
5,WTDYRLS,2.46
6,ETAGPEA,17
7,RSKQAPY,1.55
8,ASGTMQP,> 25
9,DSSGAMG,2.09
10,NRCKCPV,0.227
11,QRSTLQS,> 35
12,CKESSNW,5.5
13,AGHCKKN,1.2
14,HGTRNRG,> 21
15,SASLPRQ,35.5
16,PAHHHGA,1.42
17,CPAAHHH,0.997
18,AAAHHQH,1.18
19,VHRGPPE,> 29
20,HGEVPAG,2
21,SCSSAPR,> 40
22,QQQSLIS,0.682
23,QTSCNVC,3.23
24,YRESSCN,> 21
25,SNPNRDA,> 26

row,Substance,substrate phage enrichment score
1,TDLNALF,5.44
2,LPQRENI,0.087
3,NHPTGRQ,0.565
4,PEVWTES,0.471
5,AAGRYTG,2.29
6,SSAVKSP,> 30
7,TRSNLTG,> 105
8,NSWCSGP,7.5
9,EGAAHHH,4
10,AQCLFQE,0.778
11,PKGCTVG,> 30
12,RRESHKS,> 146
13,GIPPYAQ,2.04
14,KGTLKPL,> 22
15,FQHGYQG,2.4
16,REPKCTR,0.533
17,TTEFAEP,1.25
18,DQALKFW,> 45
19,CTAAHHH,0.869
20,LGAQKAA,1
21,DEVEQFP,4.8
22,TPSSKLQ,> 54
23,QLYCNPE,6.33
24,RRWATLQ,> 40
25,FLGPRLQ,> 21

row,Substance,substrate phage enrichment score
1,QPQDAAS,3.6
2,TGAGSIP,> 24
3,NSNEPYV,> 28
4,NYKGQGP,> 23
5,YLNSKTP,> 54
6,LGSATLQ,> 23
7,NDGSVGH,1.04
8,ANTIKAR,1.85
9,GDHNKAQ,0.966
10,GALRCRD,0.692
11,SSAREGC,1.12
12,DFFDAGN,0.231
13,THPVASD,> 69
14,PPENTWC,> 29
15,EPTQCRA,1.36
16,DPSKAWR,2.43
17,TTNLLKS,0.818
18,KCTQSGL,> 28
19,NRDGVPG,7.25
20,HPVSKVQ,1.82
21,GKAAHHH,0.957
22,TRGEPQR,> 44
23,VNFQGGS,2.4
24,QRLRWPN,18.5
25,SKLKSQG,9.2

row,Substance,substrate phage enrichment score
1,GANHSPS,> 21
2,QQTLRTQ,0.917
3,KDWRYSG,0.258
4,IPRGSRT,> 22
5,RATLQSR,> 30
6,CVGLTYS,> 22
7,HQTSDHH,1.41
8,PVQCHLQ,24.7
9,QSFTHCR,2.52
10,NEQLRCP,5.38
11,IYGPLGS,> 39
12,PAGSNHV,7
13,HYIHHHH,12
14,PGAGVGR,> 24
15,PCYAGCT,> 30
16,SRISSWQ,> 21
17,DSKQKAN,10.8
18,ASGQSMM,17.3
19,HPYFQGG,0.571
20,LPKLQST,46
21,TSHKTLC,> 34
22,LPAAHHH,0.635
23,AVGEYIN,1.12
24,GPWVSSP,13
25,EQVSQLQ,> 52

row,Substance,substrate phage enrichment score
1,QCEFNLQ,1.5
2,YRTRLQS,> 125
3,HQHTAHP,0.714
4,MHFQGGS,0.75
5,TRSDGET,2
6,SWCTVPK,37.5
7,RRPHVHT,2
8,HHVNSVD,6.82
9,QPAKPSG,1.75
10,SPGFQNR,> 48
11,QATVFCH,2.42
12,AAENMIN,> 37
13,RSTQQAA,5.3
14,HAKAHKS,1.22
15,HLRTAPD,4.5
16,YSRCLLQ,> 93
17,ENKTLLQ,> 25
18,LENNLPR,> 29
19,GTHGDNA,> 41
20,SDPVWMA,19.5
21,VWAGAPW,3.33
22,EAAVILQ,> 41
23,YPAAHHH,0.809
24,CSEYKRY,> 113
25,QPVIERQ,30

row,Substance,substrate phage enrichment score
1,TSRGRLQ,> 25
2,YGLNYYR,4.3
3,PGEYVQP,0.619
4,HESYARF,14.6
5,ALRTQLQ,154
6,PCWVWRS,> 38
7,STSHGGR,6
8,SRLQAAC,35.5
9,PKANLWD,> 28
10,RVINDGV,> 33
11,KRTIMPC,2.29
12,SQPSPNL,11.5
13,YSSHQTQ,7.7
14,RDGTSLQ,> 88
15,CAAAQHN,0.938
16,TDWSPTH,> 33
17,SGPYCLE,> 30
18,DDRRPAL,> 28
19,NSYLNMP,1.54
20,SAPPGSG,> 29
21,WTQENST,> 60
22,TDFQGGS,0.395
23,AINSQEG,0.714
24,SRINLRA,3.64
25,ASHACMQ,> 24

row,Substance,substrate phage enrichment score
1,EEETITR,5.69
2,KASGTAA,30.8
3,WPSEAIV,> 49
4,SNEPTSQ,1.85
5,PLDKSKS,> 23
6,TGDLKNA,> 32
7,MWSTDEK,3.5
8,SVRDLRC,11
9,PDHNLTH,0.811
10,SVDSATP,> 21
11,LTETSVW,6.33
12,TYYKNSQ,1.6
13,STQPVRP,> 23
14,NNHHHGA,0.08
15,EALHGDR,0.917
16,EVYLNEN,> 202
17,CRESAGV,0.875
18,CEPNVPN,8
19,ESLWGTF,3.4
20,KGVGNLP,0.1
21,LSGQHPC,5.4
22,ANFQGGS,5.89
23,NSTWTSQ,> 23
24,SNFAAPD,> 40
25,TGAAHHH,0.4

row,Substance,substrate phage enrichment score
1,RRESRTQ,13
2,GSINRTP,3.4
3,RQGWPIT,> 22
4,SNVNLST,4.8
5,TQCGATG,8.44
6,ATLQSKM,> 90
7,NGLSQYR,3.25
8,KQGREIS,0.444
9,CLQSDAR,> 22
10,YKKQISC,0.833
11,PQLRASK,> 22
12,TQTLQPH,> 28
13,PCTEPLT,> 52
14,RLTSPNE,2.5
15,LNNHNAR,3.06
16,KCHSPVE,0.182
17,HPASMTV,> 36
18,MQCPSNL,4
19,HGTPLLQ,> 27
20,KEAAHHH,0.824
21,SYFQGGS,2.23
22,LRLPHFQ,> 22
23,RSDNAIG,> 29
24,PGSEQIP,> 23
25,GNFPAQN,1.29

row,Substance,substrate phage enrichment score
1,NYNTLQR,2.64
2,LADPKLM,12
3,HSEGWQC,0.889
4,CAPWNTP,1.3
5,DTQGGSA,0.875
6,TPILQAQ,411
7,SPKTTGS,> 29
8,ICKAPEN,0.129
9,PYECTPG,5.71
10,AQWINSE,2
11,SRVTLPC,> 42
12,LQCGGQK,> 24
13,TGKPGLG,1.89
14,EHCKIQR,> 55
15,FRPHIII,1.24
16,IQSSTLI,1.69
17,LKDRDPR,> 21
18,SPSLSVQ,3.1
19,RTLGEKQ,0.389
20,RGSAAAH,0.273
21,PASTMGQ,> 310
22,QQLSTTV,0.368
23,CLVRIIR,0.5
24,EARPMSS,> 21
25,QRHTTSV,4.42

row,Substance,substrate phage enrichment score
1,EQVPRNL,2.86
2,FCSDRYP,> 25
3,VETRLHQ,> 23
4,SRGRCGL,> 41
5,TSAKTQE,0.438
6,QHSPKLQ,> 41
7,RIFRVVV,4.79
8,RSTCFQG,> 27
9,VALQSGS,> 89
10,GYLNPAM,5.5
11,RRSPHHW,4
12,TPNEPGT,6.67
13,AGTKARV,1.75
14,QMCVPTD,> 76
15,PRWKEQS,> 38
16,SHLLRES,0.222
17,RPHICSC,> 23
